Results as given in US6603023B2 (priority 1996, dated 2003).
Where two headings read alike, the source gives them in different places. For some assays here: For at least one compound, name, drawing or mass did not settle the structure. Some of these results come from one statement about several compounds together.

How the values were obtained:
[1] = test system: CCRF-CEM human T-cell acute lymphoblastic leukemia cell line; test: XTT cytotoxicity (cell growth inhibition), CCRF-CEM; conditions: for Rel. Value (potency relative to Epo B): CCRF-CEM leukemic cells
Method: (§1) The DC-3F hamster lung fibroblast cell line and its actinomycin D-selected sublines (DC-3F/ADII and DC-3F/ADX) were obtained from the Memorial Sloan-Kettering Cancer Center (MSKCC).
(§2) The drug-resistant cell lines were continuously cultured in the presence of the selecting agent, AD, DX, VBL or VM to maintain the drug resistant phenotypes. […] All cells were cultured in RPMI 1640-10% FBS at 37° C. 5% CO2 (see below).
(§3) The cells were cultured at an initial density of 5×10^4 cells/mL. They were maintained in a 5% CO2-humidified atmosphere at 37° C. in RPMI-1640 medium (GIBCO-BRL, Gaithersburg, Md.) containing penicillin (100 U/mL), streptomycin ([…]) (GIBCO-BRL) and 10% heat inactivate fetal bovine serum. Culture for cell suspension (such as for CCRF-CEM, P388 and sublines), were performed by the XTT-microculture tetrazonium method (Scudiero, D. A. et al., Cancer Res. 1988, 48, 4827-4833) in duplicate in 96-well microtiter plates.
(§4) 2′,3′-Bis(methoxy-4-nitro-5-sufophenyl)-5-[(phenylamino)carbonyl]2H-tetrazolium hyudroxide (XTT) was prepared at 1 mg/mL in prewarmed (37° C.) medium without serum. Phenazine methosulfate (PMS) and fresh XTT were mixed together to obtain 0.025 mM PMS-XTT solution (25 μL of the stock 5 mM PMS was added per 5 mL of 1 mg/mL XTT). Following a 72 h incubation, 50 μL of the assay aliquots were added to each well of the cell culture. After incubation at 37° C. for 4 h, absorbance at 450 nm and 630 nm was measured with a microplate reader (EL340, Bio-Tek Instruments, Inc., Winooski, Vt.).

CCRF-CEM/VBL100 = assay type: cell-based, human; conditions: for Potency in parentheses relative to Epo B in CCRF-CEM cells: CCRF-CEM/VBL MDR cells
Method: as §2, §3, §4

P388/Adr = assay type: cell-based, murine; conditions: P388/Adr cells
Method: as §2, §3, §4

[2] = Stability in mouse plasma (HPLC); assay type: in vitro ADME
[3] = Toxicity in normal nude mice; assay type: in vivo, athymic nude mice; conditions: epothilone B 0.6 mg/kg QDx4 i.p.
Method: For in vivo studies, paclitaxel in Cremophor-EtOH was further diluted with DMSO as needed. Vinblastine sulfate (Velban) (Eli Lilly & Co. Indianapolis, Ind.), and doxorubicin or adriamycin HCl (DX or Adr) (Pharmacia, Columbus, Ohio) in saline were diluted with DMSO as needed. DMSO was used as a vehicle for epothilones. Each mouse received ≦40 μL DMSO in all experiments.
The toxicity of EpoB and dEpoB was compared in normal athymic nude mice on the daily i.p. schedule. EpoB at 0.6 mg/kg, QDX4, i.p. led to lethality in all eight mice. […] Similar leukopenia was found with paclitaxel. Some obstructive fecal mass in the large intestine was noted following Epo treatments in the preliminary study.

DC-3F/ADX = assay type: cell-based, hamster; conditions: DC-3F/ADX cells
Method: as §1, §2
The cytotoxicity of the drug toward the monolayer cell cultures (such as DC-3F, MCF-7, SK-N-As and sublines) was determined in 96-well microtiter plates by the SRB method as described by Skehan and co-workers (Skehan, P., et al., J. Natl. Cancer Inst. 1990, 82, 1107-1112) for measuring the cellular protein content. […] Unbound dye was removed by acetic acid washes, and the protein-bound dye was extracted with an unbuffered Tris base (tris(hydroxy-methyl)aminomethane) for determination of absorbance at 570 nm in a 96-well microtiter plate reader. […] Data were analyzed with the median-effect plot (Chou, T.-C. & Talalay, P. T. (1984) Adv. Enzyme Regul. 22, 27-55) using a previously described computer program (Chou, J., & Chou T.-C. 1987, Dose-effect analysis with microcomputers: Quantitation of ED50, synergism, antagonism, low-dose risk, reception-ligand binding and enzyme kinetics, IBM-PC software and manual, Biosoft, Cambridge, U.K.). […]

SMILES	Rel. Value (potency relative to Epo B) [1]	Potency in parentheses relative to Epo B in CCRF-CEM cells (CCRF-CEM/VBL100)	fold resistance vs parent P388 (P388/Adr)	also measured
C/C(=C\c1coc(C)n1)[C@@H]1C/C=C\CCC[C@H](C)[C@H](O)[C@@H](C)C(=O)C(C)(C)[C@@H](O)CC(=O)O1 [#20]	1/85.7	–	–	–
CCC[C@@]12CCC[C@H](C)[C@H](O)[C@@H](C)C(=O)C(C)(C)[C@@H](O)CC(=O)O[C@H](/C(C)=C/c3csc(C)n3)C[C@@H]1O2 [#24]	1/22.3	–	–	fold less potent than Taxol ([1]; CCRF-CEM cells): 3-4 fold
CC[C@@]12CCC[C@H](C)[C@H](O)[C@@H](C)C(=O)C(C)(C)[C@@H](O)CC(=O)O[C@H](/C(C)=C/c3csc(C)n3)C[C@@H]1O2 [#27]	1/2.9	1/20.6	–	–
C/C(=C\c1csc(C)n1)[C@@H]1C/C=C\CCC[C@H](C)[C@H](O)[C@@H](C)C(=O)C(C)(C)[C@@H](O)CC(=O)O1 [Desoxyepothilone A, desoxyepothilone A]	1/62.8	1/34.3	< 0.6 fold	–
C/C1=C/C[C@@H](/C(C)=C/c2csc(C)n2)OC(=O)C[C@H](O)C(C)(C)C(=O)[C@H](C)[C@@H](O)[C@@H](C)CCC1 [Desoxyepothilone B, desoxyepothilone B]	1/27.1	1/48.6	< 0.6 fold	fold less potent than Taxol [1]: 3-4 fold; half-life in mouse plasma [2]: about 15 or 20 min
C/C(=C\c1csc(C)n1)[C@@H]1C[C@@H]2O[C@@H]2CCC[C@H](C)[C@H](O)[C@@H](C)C(=O)C(C)(C)[C@@H](O)CC(=O)O1 [Epothilone A, epothilone A]	1/7.7	1/57.1	less than 6 fold	Potency in square brackets relative to Epo B in CCRF-CEM/VBL MDR cells (CCRF-CEM/VBL100): 1/9.5
C/C(=C\c1csc(C)n1)[C@@H]1C[C@@H]2O[C@]2(C)CCC[C@H](C)[C@H](O)[C@@H](C)C(=O)C(C)(C)[C@@H](O)CC(=O)O1 [Epothilone B, epothilone B]	–	–	less than 6 fold	Mice died of toxicity on day [3]: 5, 6, 6, 7, 7, 7, 7, and 7 day
COc1cc([C@@H]2c3cc4c(cc3[C@@H](O[C@@H]3O[C@@H]5CO[C@@H](C)O[C@H]5[C@H](O)[C@H]3O)[C@H]3COC(=O)[C@H]23)OCO4)cc(OC)c1O [Etoposide, etoposide]	–	–	–	fold resistance vs parent DC-3F (DC-3F/ADX): > 338 fold
